Assay results from the supplement of paper PMC11417369.
± gives the standard deviation of the averaged measurements. Some of the results follow.

Tested on: PfAP2-G AP2 domain (GST-tagged)
Assay: gcPBM binding intensity (ln(normalized median fluorescence intensity)); higher = stronger DNA binding
Method in brief: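 Binding of GST-tagged P. falciparum DNA-binding domains, expressed in E. coli and used at about 25 μg on average, was carried out for 1 h in 1× PBS containing 1% milk, 0.2 mg/ml BSA, 0.5% salmon testes DNA and 0.03% Triton X-100. The target was an Agilent 4 × 180k array of primer-extended double-stranded 36-bp intergenic genomic probes plus negative controls, read with Alexa488 anti-GST antibody at 488 nm. Binding intensity is the highest Masliner-normalised natural-log median intensity across replicate spots of either probe orientation.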

| Sequence | gcPBM binding intensity (ln) |
| --- | --- |
| ACAATAAAGAACAGTATGCACTTTTATGCATGCGTA | 9.94 ± 0.028 |
| TACATGCAAAAAATTCCACACACACCCCCACATATA [CACACA_site8329] | 11 ± 0.57 |
| TAAAATATAGGAAATACATGCATATTAAATATTCCT [TGCATGCA_site1057] | 9.62 ± 0.14 |
| TACTTCATTCATTTTACACACATATAAACCCTTTTA [CACACA_site3229] | 10.07 ± 0.049 |
| ACTAATACATAAAAAAGTACAAATATGAGTATTAAC [XGTACX_site7281] | 11.5 ± 0.86 |
| AATATTCAATATAAAGTGCATTATTGTGGACCTAAT | 10.7 ± 0.49 |
| TATATAGCTAAAAACACACAAATATGTACACATAAA [CACACA_site7665] | 11.4 ± 0.73 |
| CTTTTTCTTTTCCGGCGTACAGACTTAGTAGTAGAT [XGTACX_site2268] | 11.6 ± 0.88 |
| TTTTTTAAATTGGTAGTGCAATATGATTGAACAAAA [GTGCAC_site9715] | 10.4 ± 0.39 |
| AAAAAAAAAAAAAGTACACACATACAGATAAATATA [CACACA_site5067] | 11.6 ± 1 |
| ATAAATTGATTCAACACACACATATGTAGGAAGTTA [CACACA_site3253] | 9.935 ± 0.078 |
| TTAATCAAATTACTATGTACATAAAACATATAAGAA [XGTACX_site381] | 11.2 ± 0.76 |
| TATTTTTTTTCAAAAAAGTTTATTTAGAACTAAATA [XGTACX_negctrl_site487] | 9.745 ± 0.049 |
| GGGTATACCAATATAACACACATATATATATAATAT [CACACA_site450] | 9.9 ± 0.014 |
| AAATTATTAAAAAAGTGTACATATTTTTATAATACC [XGTACX_site5610] | 11.5 ± 0.71 |
| ATAAGCATACATATTACACACATATAACATCTATAT [CACACA_site7219] | 9.98 ± 0.014 |
| TATATATATATACATACATGCATATATATATATATA [TGCATGCA_site513] | 9.81 ± 0.59 |
| AATACAATAAAAAAAAGTACACATGTATAAAAAATT [XGTACX_site8270] | 11.6 ± 0.8 |
| AATATATCTTATTTAACACACACAAAGAAAATAGAA [CACACA_site9242] | 10.24 ± 0.099 |
| TGTTATCAGAAAGCACGTACATATAATTATATATTC [XGTACX_site4188] | 11.4 ± 0.92 |
| TTCTTATTTGTACTAGTGCAATAGAAAATAAATAAA [GTGCAC_site9731] | 11.2 ± 0.71 |
| TATATAATATATATATGTACACATTTGCAAACAATG [XGTACX_site6941] | 11.6 ± 0.99 |
| TAGAAAATCAGTTAAACACACACATAAAAAAAAAAA [CACACA_site8933] | 9.88 ± 0.16 |

| Sequence | gcPBM binding intensity (ln) |
| --- | --- |
| TGTACCTACAAAATATGATATATTTTTATAAATTGT [XGTACX_negctrl_site498] | 10.6 ± 0.24 |
| ATGAATTAATCTAATCGTACAATAAGCATTATTATA [XGTACX_site2571] | 11.1 ± 0.6 |
| GAATATGTAAAGAAAGGTACACATGAAAATATGTGT [XGTACX_site446] | 11.2 ± 0.54 |
| TATTTTTTCTTAAACACACACATATAGATTTATAAC [CACACA_site7354] | 10.2 ± 0.21 |
| TGTCCTTATTGGCACACACACATATAAGAAATTTAA [CACACA_site5724] | 10.6 ± 0.42 |
| TTTTTTAAAGCCTGTTCATCATCCTTACCTATCAAC [GTGCAC_negctrl_site452] | 10 ± 0.13 |
| AACATATATAATATTTGTACTTATATACAAAATATG [XGTACX_site7502] | 11.1 ± 0.73 |
| CTAATTCGTATATGCTGTACCTTTTTCTTACGACTA [XGTACX_site4392] | 11.3 ± 0.61 |
| ATATGGAATGATCATAGTACATAATTTAAAATTTTA [XGTACX_site3568] | 10.8 ± 0.51 |
| ACCCTATTTATATATACACACACATATATAAATAAA [CACACA_site8980] | 10.3 ± 0.37 |
| ATAGGATGTTTGCACTGTACCAAAAAATGAGCTGCA [XGTACX_site2825] | 11.1 ± 0.68 |
| ACTTTTTTGAACAACGTGCACGTATTCATAACAAAA | 10.7 ± 0.4 |
| ATCAGATATATATATTGTACATTTATATATAAATCA [XGTACX_site1960] | 10.8 ± 0.45 |
| ATTAAAAATTATATTTTATAAAAATTAAAAGAAATA [CACACA_negctrl_site65] | 9.655 ± 0.049 |
| AAAGTATACAATGACGCATGCATATATATATACATA [TGCATGCA_site429] | 9.875 ± 0.064 |
| ATTTATTTATCTAGCTATTCACCATTTTCTTTTGTT [CACACA_negctrl_site1259] | 9.72 ± 0.3 |
| TCATGTAGTAAAAACTGTACAAATTATTTATCATGT [XGTACX_site1727] | 11 ± 0.64 |
| ATAACTTTTGCGCGTACACACATTTATCCTCTTTAT [CACACA_site209] | 11.7 ± 0.96 |
| AATATCACATTCCACGGTACACACTAAAAGAAAAAT [XGTACX_site7653] | 11 ± 0.69 |
| ATAAATACGATTAATTAGGTTTGTATAAATTAAATT [GTGCAC_negctrl_site635] | 9.87 |
| CTATAATAGAAGTGTACACACATATTTATGTCTGTA [CACACA_site7462] | 11.7 ± 0.93 |
| TTTTCTTTATTATAATGTACTCACAAATAAATATAA [XGTACX_site7298] | 11.3 ± 0.91 |
| TTTCATTTTAGAAGTACACACAAAAAATAAAATAAT [CACACA_site2141] | 11.6 ± 0.92 |

| Sequence | gcPBM binding intensity (ln) |
| --- | --- |
| GTACCTATAAATATTACACACATTTTCATTTTTAAC [CACACA_site7022] | 10.22 ± 0.049 |
| AAAAAAAATTATATTTGTACGCATTAAAAAATCTAA [XGTACX_site1616] | 11.5 ± 0.78 |
| AAAATTGTGAAAGGGAAGATGATCAAATTGTTAAGG [CACACA_negctrl_site1492] | 9.94 ± 0.014 |
| GATGGGCAAATTTACTGTACTTTTATAATATTTTTT [XGTACX_site4830] | 11.4 ± 0.82 |
| TATAATGGTAAAAACACACAAATATGAAGATGTTAA [CACACA_site6479] | 9.86 ± 0.014 |
| ATTAAACTCATTAAGAGTACAGATAACATTAAAGTA [XGTACX_site8697] | 11.4 ± 0.83 |
| TGAAATTAGATATATACACACATATAGATTTATATG [CACACA_site7619] | 9.85 ± 0.042 |
| CTTAAAAACAAAAATGCACACATAATAAGCATATGT [CACACA_site9149] | 9.82 ± 0.3 |
| ATTTTTTTTTTTTTTTCATGAAATTTTTTTTTTTTT [CACACA_negctrl_site1069] | 9.725 ± 0.021 |
| AACCACCACACCATCACACATAAGATTAGACGAGTA [CACACA_site6063] | 10 ± 0.16 |
| TGTAGTAATGCTTATTGTACATATACATTTCTTACA [XGTACX_site219] | 10.9 ± 0.64 |
| TTATATAGAATTAATTTCTTTTTTTTCTTTTTTAAA [CACACA_negctrl_site1308] | 9.46 ± 0.085 |
| TTAAAAAAAAATAAAGGTACACGGAGAAATCCTTTT [XGTACX_site7509] | 11.1 ± 0.6 |
| ATATATTTATTATTAGGTACACATATATATATATAT [XGTACX_site5045] | 11.1 ± 0.61 |
| TTTTCCCTTAACCTCTGTACATATAATTTTCTTTCC [XGTACX_site4180] | 11 ± 0.61 |
| TTTTTTTTTCGCTTTTGTACACATTTTATAGAACAG [XGTACX_site2416] | 11.4 ± 0.88 |
| TATTATATATATGGAAGTACAGGTATATCGTTTTTC [XGTACX_site3771] | 11.3 ± 0.66 |
| TATCCATTATTTAAAAGTACAAAAAACGATTTACAC [XGTACX_site2979] | 11.3 ± 0.8 |
| AAATATTTTTTAATTGTTCACTTGGTGGATCATTAA [CACACA_negctrl_site922] | 10.25 ± 0.071 |
| CACATAAAAAAATAAACACACATATGTATATATATA [CACACA_site3177] | 10.05 ± 0.092 |
| ATTTATTTTTTGTGTTCACACATTAGTATCATCTAT [CACACA_site5274] | 10.3 ± 0.38 |
| TAGAATATGTTTAGTTGTACAAAACAAAATGGAATT [XGTACX_site5293] | 11 ± 0.61 |
| ATATTTATGGAATATACACACATGTATAATTATATA [CACACA_site2033] | 10.1 ± 0.13 |

| Sequence | gcPBM binding intensity (ln) |
| --- | --- |
| TTTTCTGTTTTCATTACACACCTTACAAGAACAATA [CACACA_site2158] | 10.4 ± 0.27 |
| TCTAATGATATATACACACACATATAGATTTATATA [CACACA_site7044] | 9.89 ± 0.099 |
| ATTTTTCTAAAATACTGTACAAAGGTGCATAAAAAG [XGTACX_site4425] | 11 ± 0.64 |
| TTTATTCAAGGAATAGTGCATAATAATAAGTATTAT | 10.1 ± 0.25 |
| TGTATTCTCTTAGTAGTGCATTTGAAGATTATATAA | 10.2 ± 0.18 |
| TGCTTTTCTTTTTGCACACTTATGCATATATATATA [CACACA_site2583] | 10.2 ± 0.16 |
| AAATAAGAAAAAGCGCGTACACATAACATTTTTATA [XGTACX_site8807] | 11.7 ± 0.93 |
| TTTTTTGCTAAAAAGAGTACTAATAAAAAATTTATT [XGTACX_site5235] | 11.4 ± 0.88 |
| TTTTTGTAATTATATTAATATATATATATATATATA [CACACA_negctrl_site198] | 9.86 ± 0.28 |
| AATAATTTAAGGAATACACACAAGAAAAAAATAAGA [CACACA_site60] | 10.2 ± 0.16 |
| TTATCATTTGGACACGCACACACACCGAAAAAGAAA [CACACA_site8008] | 11 ± 0.66 |
| GTTCATCACATATACACATGCATATTCTAATATGTA [TGCATGCA_site809] | 10.4 ± 0.56 |
| ACATTATATAAAATATGTACATATAAAAAATTCTAT [XGTACX_site1617] | 11.3 ± 0.71 |
| CATATATGTGATAACACGCACACAAATGTATAGAAT [CACACA_site2594] | 10.4 ± 0.19 |
| GAAAACATTAAAAGTTAGATCATAAGAAAAGAATAT [GTGCAC_negctrl_site726] | 9.76 ± 0.28 |
| TATTTATTTATTTATGCATGCATGAATAATTTTTAC [TGCATGCA_site31] | 9.98 ± 0.19 |
| ATTATTTAGAAATGAGCACACAAAAAGAAGAATTTT [CACACA_site7913] | 10.3 ± 0.15 |
| TCACTATAGTAATTTACACACATTTGAAGAAAATGT [CACACA_site7626] | 9.99 ± 0.085 |
| ACAAGAGAAGTAATTGCACACGTTGTTTCTTTTTCT [CACACA_site35] | 9.79 ± 0.38 |
| CCACATATACAAAACACACACACAACGTTTTAATAA [CACACA_site1978] | 10.1 ± 0.16 |
